For 36 compounds, growth inhibition results are on record in the supplement of paper PMC7266297.

The test system of one experiment is KB-3-1. Briefly: growth inhibition relative to DMSO control (SRB); cervical cancer cells: KB-3-1 is the parent and KB-V1 overexpresses MDR1; SRB is the sulforhodamine B stain; higher = more growth inhibition. The following applies: 1 µM; 72 h.
The test system of a further experiment is KB-V1. Described as above. Particulars: 1 µM; 72 h.

Counter-ions that a name gives are not always drawn. Some of the results follow. Single values are uncertain, as repeats are few or missing.
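Note: Read-out is SRB optical density at 490 nm, with the control being wells given 0.5% DMSO vehicle, and compound added one day after cells were plated.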

Regarding `CCOC(=O)[C@H]1O[C@@H]1C(=O)N[C@@H](CC(C)C)C(=O)NCCC(C)C` [Aloxistatin], the growth inhibition came out at 56.1% with KB-3-1 and 6.79% in the experiment on KB-V1.
Taken in the same sequence, the figures for `O=C(Oc1cc(S(=O)(=O)c2ccccc2)ccc1[N+](=O)[O-])c1ccc(Cl)cc1` were 49.7% and 5.56%.
Taken in the same sequence, the figures for `Cc1cncc(CN2CCC(=C3c4ccc(Cl)cc4CCc4cccnc43)CC2)c1` [Rupatadine Fumarate] were less than 0% and 13.6%.
As to `C[C@]12CC[C@@H]3c4ccc(O)cc4C[C@@H](CCCCCCCCC[S+]([O-])CCCC(F)(F)C(F)(F)F)[C@H]3[C@@H]1CC[C@@H]2O` (some centres not stated) [Fulvestrant], the growth inhibition was 38.8% with KB-3-1 and 43.6% in the experiment with KB-V1.
In the case of `Cc1cnc(-c2cc(N3CCN(C(=O)CCS(C)(=O)=O)CC3)ncc2Cl)c(C)c1`, the growth inhibition in the experiment on KB-3-1 was found to be 11.4%; in the experiment on KB-V1 it was 45.6%.
As to `Cn1cncc1[C@@](N)(c1ccc(Cl)cc1)c1ccc2c(c1)c(-c1cccc(Cl)c1)cc(=O)n2C` [Tipifarnib], the growth inhibition in the experiment on KB-3-1 came to 56.2%; with KB-V1 it was 68.7%.
With `C[C@H](NC(=O)Cc1cc(F)cc(F)c1)C(=O)N[C@@H]1C(=O)N(C)c2ccccc2-c2ccccc21`, the growth inhibition with KB-3-1 and in the experiment with KB-V1 was less than 0% in each case.
Regarding `C=CC(=O)N1CCC[C@@H](n2nc(-c3ccc(Oc4ccccc4)cc3)c3c(N)ncnc32)C1`, the growth inhibition with KB-3-1 and in the experiment on KB-V1 was less than 0% in each case.
With `COC(=O)N[C@H](C(=O)N[C@@H](Cc1ccccc1)[C@@H](O)CN(Cc1ccc(-c2ccccn2)cc1)NC(=O)[C@@H](NC(=O)OC)C(C)(C)C)C(C)(C)C` [Atazanavir Sulfate], the growth inhibition was 16.1% in the experiment with KB-3-1 and 35.2% with KB-V1.
For `N#Cc1c(Oc2ccc(F)c(NC(=O)Cc3cccc(C(F)(F)F)c3)c2)ccc2nc(NC(=O)C3CC3)sc12`, the growth inhibition in the experiment on KB-3-1 and in the experiment with KB-V1 was less than 0% in each case.
With `CCCc1nc2c(C)cc(-c3nc4ccccc4n3C)cc2n1Cc1ccc(-c2ccccc2C(=O)O)cc1` [Telmisartan], the growth inhibition with KB-3-1 came out at 43.6%; with KB-V1, 19.9%.
For the compound `O=c1[nH]cnc2c1ncn2[C@H]1CC[C@@H](CO)O1` [Didanosine], the growth inhibition is 51% in the experiment with KB-3-1 and 23% in the experiment on KB-V1.
Take `Cc1ccc(C(=O)Nc2ccc(CN3CCN(C)CC3)c(C(F)(F)F)c2)cc1C#Cc1cnc2cccnn12`: the growth inhibition came to 81.6% in the experiment with KB-3-1 and 97.2% with KB-V1.
For the compound `Cc1nc(N)sc1-c1ccnc(Nc2ccc(N3CCOCC3)cc2)n1`, the growth inhibition in the experiment with KB-3-1 is 80.9%; in the experiment with KB-V1, 64%.
For `C#Cc1cccc(Nc2ncnc3cc(OC)c(OCCCCCCC(=O)NO)cc23)c1`, the growth inhibition with KB-3-1 amounted to 86.1%; with KB-V1, 74%.
On to `Cc1cc(N2CCOCC2)ccc1Nc1nc(NC2CCCCC2)c2[nH]cnc2n1`, for which the figures for the growth inhibition in the experiment on KB-3-1 and in the experiment on KB-V1 were 81.3% and 37.1%, respectively.
Regarding `O=C1Nc2ccccc2/C1=C1/Nc2ccccc2C1=O` [Indirubin], the growth inhibition with KB-3-1 is less than 0%; in the experiment on KB-V1 it was 14%.
Taken in the same sequence, the figures for `COc1ccc(C[C@@H]2c3cc(OC)c(OC)cc3CC[N@+]2(C)CCC(=O)OCCCCCOC(=O)CC[N@@+]2(C)CCc3cc(OC)c(OC)cc3[C@H]2Cc2ccc(OC)c(OC)c2)cc1OC` [Cisatracurium Besylate] were less than 0% and less than 0%.
As to `CC(C)[C@H](C(=O)Nc1ccc(C(=O)NO)cc1)c1ccccc1`, the growth inhibition in the experiment with KB-3-1 turned out to be 88.7%; with KB-V1, 85%.
For `COc1ccc(NS(=O)(=O)c2sc3ccc(Cl)cc3c2C)cc1N1CCNCC1`, the growth inhibition in the experiment with KB-3-1 is less than 0%; in the experiment on KB-V1, 10.8%.
For `CNCC[C@@H](Oc1ccccc1C)c1ccccc1` [Atomoxetine HCl] the same measures were less than 0% and 4.8%.
In the case of `O=C(Cc1ccc(-c2ccc(OCCN3CCOCC3)cc2)cn1)NCc1ccccc1`, the growth inhibition came to 70.4% in the experiment on KB-3-1 and 96.5% in the experiment on KB-V1.
In the case of `CCCc1cc(C)[nH]c(=O)c1CNC(=O)c1cc(-c2ccc(N3CCN(C(C)C)CC3)nc2)cc2c1cnn2C(C)C`, the growth inhibition in the experiment with KB-3-1 was determined as 5.75%; in the experiment with KB-V1, 19.7%.
As for `COc1cc(F)c(C(C)C)cc1-c1ccc(C(F)(F)F)cc1CN1C(=O)O[C@H](c2cc(C(F)(F)F)cc(C(F)(F)F)c2)[C@@H]1C` [Anacetrapib (MK-0859)], the growth inhibition is less than 0% with KB-3-1 and 3.12% in the experiment with KB-V1.
Taken in the same sequence, the figures for `OCc1ccc(-c2ccc(-c3ccc(CO)s3)o2)s1` were 63.7% and 68.9%.
On to `CC1(C)CC(=O)c2c(C(F)(F)F)nn(-c3ccc(C(N)=O)c(N[C@H]4CC[C@H](O)CC4)c3)c2C1`, for which the growth inhibition is 85.2% in the experiment with KB-3-1 and 53.2% in the experiment on KB-V1.
For `OCCOCCN1CCN(C2=Nc3ccccc3Sc3ccccc32)CC1` [Quetiapine Fumarate] the same measures were 49% and 24%.
`Cc1ccc(NC(=O)c2ccc(CN3CCN(C)CC3)cc2)cc1Nc1nccc(-c2cccnc2)n1` [Imatinib Mesylate (STI571)]: the values for the growth inhibition with KB-3-1 and with KB-V1 were 14.9% and 13.8%, respectively.
Regarding `O=C1c2ccc(Nc3ccc(F)cc3F)cc2CCc2ccc(OC[C@H](O)CO)cc21` [Skepinone-L], the results for the growth inhibition with KB-3-1 and in the experiment on KB-V1 were 5.75% and less than 0%, respectively.
`CO[C@@H](C(=O)N1Cc2[nH]nc(NC(=O)c3ccc(N4CCN(C)CC4)cc3)c2C1)c1ccccc1`: the growth inhibition is 84.1% with KB-3-1 and 50.5% in the experiment on KB-V1.
Turning to `CNC(=O)c1cc(Oc2ccc(NC(=O)Nc3cc(C(C)(C)C)nn3-c3ccc4ncccc4c3)c(F)c2)ccn1` [DCC-2036 (Rebastinib)], the results for the growth inhibition in the experiment with KB-3-1 and in the experiment with KB-V1 were less than 0% and 3.12%, respectively.
Consider `Cc1cc(F)c(Nc2ncnc3cc(OCc4ccccc4)ccc23)cc1O`, for which the growth inhibition is 13.5% with KB-3-1 and less than 0% in the experiment on KB-V1.
On to `C#CCC(Cc1cnc2nc(N)nc(N)c2n1)c1ccc(C(=O)N[C@@H](CCC(=O)O)C(=O)O)cc1` (some centres not stated) [Pralatrexate], for which the figures for the growth inhibition in the experiment with KB-3-1 and in the experiment with KB-V1 were 41.2% and 18.4%, respectively.
Turning to `O=C(Nc1cccc(Nc2ncc(Br)c(NCCc3cnc[nH]3)n2)c1)N1CCCC1`, the growth inhibition in the experiment with KB-3-1 is 54.3%; with KB-V1, 28.8%.
As for `COc1ccccc1N1CCN(CCN2C(=O)CC3(CCCC3)CC2=O)CC1`, the growth inhibition in the experiment on KB-3-1 and with KB-V1 was less than 0% throughout.
On to `c1ccc(-c2[nH]ncc2-c2ccnc3ccccc23)nc1`, for which the growth inhibition was 5.56% with KB-3-1 and 20.1% in the experiment with KB-V1.
